Laboratory results taken from US10618918B2, “Substituted boronic acids as antimicrobials” (priority 2015, dated 2020).
At least one read-out could not be matched to a standard name with certainty.

Tests used:
[1] = test system: ec308 SHV-5; experiment: Tigemonam potentiation (MPC@4), strain ec308 SHV-5; format: cell-based; settings: minimum BLI concentration inhibiting growth with tigemonam 4 μg/mL; tested up to 40 μg/mL
[2] = test system: KP1005 CTX-M-14; experiment: Aztreonam potentiation (MPC@4), strain KP1005 CTX-M-14; settings: minimum BLI concentration inhibiting growth with aztreonam 4 μg/mL; tested up to 40 μg/mL
[3] = test system: KP1009 CTX-M-15; experiment: Tigemonam potentiation (MPC@4), strain KP1009 CTX-M-15; settings: minimum BLI concentration inhibiting growth with tigemonam 4 μg/mL; tested up to 40 μg/mL
[4] = test system: ec302 TEM-10; experiment: Tigemonam potentiation (MPC@4), strain ec302 TEM-10; format: cell-based; settings: minimum BLI concentration inhibiting growth with tigemonam 4 μg/mL; tested up to 40 μg/mL
[5] = test system: EC1010 CMY-6; experiment: Tigemonam potentiation (MPC@4), strain EC1010 CMY-6; format: cell-based; settings: minimum BLI concentration inhibiting growth with tigemonam 4 μg/mL; tested up to 40 μg/mL
[6] = test system: KP1010 SHV-12; experiment: Tigemonam potentiation (MPC@4), strain KP1010 SHV-12; settings: minimum BLI concentration inhibiting growth with tigemonam 4 μg/mL; tested up to 40 μg/mL

SMILES	TIG MPC4 SHV-5 ec308 [1]	AZT MPC4 CTX-M-14 KP1005 [2]	TIG MPC4 CTX-M-15 KP1009 [3]	TIG MPC4 TEM-10 ec302 [4]	TIG MPC4 CMY-6 EC1010 [5]	TIG MPC4 SHV-12 KP1010 [6]
NCCCSCc1ccc2c(c1C(=O)[O-])O[B-](O)(O)CC2.[Na+].[Na+] [Compound 21, Disodium; 8-(3-aminopropylsulfanylmethyl)-4,4-dihydroxy-5-oxa-4-boranuidabicyclo[4.4.0]deca-1(6),7,9-triene-7-carboxylate]	Z (Z = MPC@4 > 20 μg/mL)	Y (Y = 5 μg/mL < MPC@4 ≤ 20 μg/mL)	Y (Y = 5 μg/mL < MPC@4 ≤ 20 μg/mL)	Z (Z = MPC@4 > 20 μg/mL)	X (X = MPC@4 ≤ 5 μg/mL)	Y (Y = 5 μg/mL < MPC@4 ≤ 20 μg/mL)
O=C([O-])c1ccc2c(c1C(=O)[O-])O[B-](O)(O)CC2.[Na+].[Na+].[Na+] [Compound 53, Trisodium; 4,4-dihydroxy-5-oxa-4-boranuidabicyclo[4.4.0]deca-1(6),7,9-triene-7,8-dicarboxylate]	Z (Z = MPC@4 > 20 μg/mL)	Y (Y = 5 μg/mL < MPC@4 ≤ 20 μg/mL)	Z (Z = MPC@4 > 20 μg/mL)	Z (Z = MPC@4 > 20 μg/mL)	X (X = MPC@4 ≤ 5 μg/mL)	Y (Y = 5 μg/mL < MPC@4 ≤ 20 μg/mL)
NCCc1cn(-c2ccc3c(c2C(=O)O)O[B-](O)(O)CC3)nn1 [Compound 14, Disodium; 8-[4-(2-aminoethyl)triazol-1-yl]-4,4-dihydroxy-5-oxa-4-boranuidabicyclo[4.4.0]deca-1(6),7,9-triene-7-carboxylate]	Y (Y = 5 μg/mL < MPC@4 ≤ 20 μg/mL)	Y (Y = 5 μg/mL < MPC@4 ≤ 20 μg/mL)	Y (Y = 5 μg/mL < MPC@4 ≤ 20 μg/mL)	Z (Z = MPC@4 > 20 μg/mL)	X (X = MPC@4 ≤ 5 μg/mL)	Y (Y = 5 μg/mL < MPC@4 ≤ 20 μg/mL)
COCC#CCOc1ccc2c(c1C(=O)[O-])O[B-](O)(O)CC2.[Na+].[Na+] [Compound 31, Disodium; 4,4-dihydroxy-8-(4-methoxybut-2-ynoxy)-5-oxa-4-boranuidabicyclo[4.4.0]deca-1(6),7,9-triene-7-carboxylate]	X (X = MPC@4 ≤ 5 μg/mL)	Y (Y = 5 μg/mL < MPC@4 ≤ 20 μg/mL)	Y (Y = 5 μg/mL < MPC@4 ≤ 20 μg/mL)	Y (Y = 5 μg/mL < MPC@4 ≤ 20 μg/mL)	X (X = MPC@4 ≤ 5 μg/mL)	X (X = MPC@4 ≤ 5 μg/mL)
O=C(O)c1c(OC(CO)CO)ccc2c1OB(O)CC2 [Compound 44, 2-hydroxy-7-[2-hydroxy-1-(hydroxymethyl)ethoxy]-3,4-dihydro-1,2-benzoxaborinine-8-carboxylic acid]	Z (Z = MPC@4 > 20 μg/mL)	Y (Y = 5 μg/mL < MPC@4 ≤ 20 μg/mL)	Z (Z = MPC@4 > 20 μg/mL)	Z (Z = MPC@4 > 20 μg/mL)	X (X = MPC@4 ≤ 5 μg/mL)	Y (Y = 5 μg/mL < MPC@4 ≤ 20 μg/mL)
C[C@H]1Cc2cccc(C(=O)O)c2O[B-]1(O)O [Compound 9, Disodium; (3S)-4,4-dihydroxy-3-methy-5-oxa-4-boranuidabicyclo[4.4.0]deca-1(6),7,9-triene-7-carboxylate]	Z (Z = MPC@4 > 20 μg/mL)	Z (Z = MPC@4 > 20 μg/mL)	Z (Z = MPC@4 > 20 μg/mL)	Z (Z = MPC@4 > 20 μg/mL)	X (X = MPC@4 ≤ 5 μg/mL)	Y (Y = 5 μg/mL < MPC@4 ≤ 20 μg/mL)
O=C([O-])c1ccnc2c1O[B-](O)(O)CC2.[Na+].[Na+] [Compound 38, Disodium; 8,8-dihydroxy-7-oxa-2-aza-8-boranuidabicyclo[4.4.0]deca-1,3,5-triene-5-carboxylate]	Z (Z = MPC@4 > 20 μg/mL)	Z (Z = MPC@4 > 20 μg/mL)	Z (Z = MPC@4 > 20 μg/mL)	Z (Z = MPC@4 > 20 μg/mL)	X (X = MPC@4 ≤ 5 μg/mL)	Z (Z = MPC@4 > 20 μg/mL)
C[S+]([O-])c1ccc2c(c1C(=O)[O-])O[B-](O)(O)CC2.[Na+].[Na+] (stereo not drawn) [Compound 40, Disodium; 4,4-dihydroxy-8-methylsulfinyl-5-oxa-4-boranuidabicyclo[4.4.0]deca-1(6),7,9-triene-7-carboxylate]	X (X = MPC@4 ≤ 5 μg/mL)	X (X = MPC@4 ≤ 5 μg/mL)	X (X = MPC@4 ≤ 5 μg/mL)	X (X = MPC@4 ≤ 5 μg/mL)	X (X = MPC@4 ≤ 5 μg/mL)	X (X = MPC@4 ≤ 5 μg/mL)
CS(=O)(=O)Nc1ccc2c(c1C(=O)[O-])O[B-](O)(O)CC2.[Na+].[Na+] [Compound 51, Disodium; 4,4-dihydroxy-8-(methanesulfonamido)-5-oxa-4-boranuidabicyclo[4.4.0]deca-1(6),7,9-triene-7-carboxylate]	Y (Y = 5 μg/mL < MPC@4 ≤ 20 μg/mL)	Y (Y = 5 μg/mL < MPC@4 ≤ 20 μg/mL)	Z (Z = MPC@4 > 20 μg/mL)	Y (Y = 5 μg/mL < MPC@4 ≤ 20 μg/mL)	X (X = MPC@4 ≤ 5 μg/mL)	X (X = MPC@4 ≤ 5 μg/mL)
CSCC(=O)NC1CB(O)Oc2c(C(=O)O)cccc21 (stereo not drawn) [Compound 3, 2-HYDROXY-4-(2-(METHYLTHIO)ACETAMIDO)-3,4-DIHYDRO-2H-BENZO[E][1.2]OXABORININE-8-CARBOXYLIC ACID]	X (X = MPC@4 ≤ 5 μg/mL)	X (X = MPC@4 ≤ 5 μg/mL)	X (X = MPC@4 ≤ 5 μg/mL)	Y (Y = 5 μg/mL < MPC@4 ≤ 20 μg/mL)	X (X = MPC@4 ≤ 5 μg/mL)	X (X = MPC@4 ≤ 5 μg/mL)
O=C(O)c1c(OCC2OCCO2)ccc2c1OB(O)CC2 [Compound 26, 7-(1,3-Dioxolan-2-ylmethoxy)-2-hydroxy-3,4-dihydro-1,2-benzoxaborinine-8-carboxylic acid]	Y (Y = 5 μg/mL < MPC@4 ≤ 20 μg/mL)	Y (Y = 5 μg/mL < MPC@4 ≤ 20 μg/mL)	Y (Y = 5 μg/mL < MPC@4 ≤ 20 μg/mL)	Z (Z = MPC@4 > 20 μg/mL)	X (X = MPC@4 ≤ 5 μg/mL)	X (X = MPC@4 ≤ 5 μg/mL)
CON=Cc1ccc2c(c1C(=O)[O-])O[B-](O)(O)CC2.[Na+].[Na+] [Compound 55, Disodium; 4,4-dihydroxy-8-(methoxyiminomethyl)-5-oxa-4-boranuidabicyclo[4.4.0]deca-1(6),7,9-triene-7-carboxylate]	X (X = MPC@4 ≤ 5 μg/mL)	Y (Y = 5 μg/mL < MPC@4 ≤ 20 μg/mL)	Y (Y = 5 μg/mL < MPC@4 ≤ 20 μg/mL)	Y (Y = 5 μg/mL < MPC@4 ≤ 20 μg/mL)	X (X = MPC@4 ≤ 5 μg/mL)	X (X = MPC@4 ≤ 5 μg/mL)
NC(=O)COc1ccc2c(c1C(=O)O)OB(O)CC2 [Compound 46, 7-(2-Amino-2-oxo-ethoxy)-2-hydroxy-3,4-dihydro-1,2-benzoxaborinine-8-carboxylic acid]	X (X = MPC@4 ≤ 5 μg/mL)	X (X = MPC@4 ≤ 5 μg/mL)	X (X = MPC@4 ≤ 5 μg/mL)	Y (Y = 5 μg/mL < MPC@4 ≤ 20 μg/mL)	X (X = MPC@4 ≤ 5 μg/mL)	X (X = MPC@4 ≤ 5 μg/mL)
O=C(O)c1c(F)ccc2c1OB(O)COC2 [Compound 58, 8-Fluoro-2-hydroxy-3,5-dihydro-1,4,2-benzodioxaborepine-9-carboxylic acid]	Z (Z = MPC@4 > 20 μg/mL)	Z (Z = MPC@4 > 20 μg/mL)	Z (Z = MPC@4 > 20 μg/mL)	Z (Z = MPC@4 > 20 μg/mL)	X (X = MPC@4 ≤ 5 μg/mL)	Z (Z = MPC@4 > 20 μg/mL)
O=C([O-])c1c(-c2ccn[nH]2)ccc2c1O[B-](O)(O)CC2.[Na+].[Na+] [Compound 15, Disodium; 4,4-dihydroxy-8-(1H-pyrazol-5-yl)-5-oxa-4-boranuidabicyclo[4.4.0]deca-1(6),7,9-triene-7-carboxylate]	Y (Y = 5 μg/mL < MPC@4 ≤ 20 μg/mL)	Y (Y = 5 μg/mL < MPC@4 ≤ 20 μg/mL)	Y (Y = 5 μg/mL < MPC@4 ≤ 20 μg/mL)	Y (Y = 5 μg/mL < MPC@4 ≤ 20 μg/mL)	X (X = MPC@4 ≤ 5 μg/mL)	X (X = MPC@4 ≤ 5 μg/mL)
N#CCOc1ccc2c(c1C(=O)O)OB(O)CC2 [Compound 47, 7-(Cyanomethoxy)-2-hydroxy-3,4-dihydro-1,2-benzoxaborinine-8-carboxylic acid]	X (X = MPC@4 ≤ 5 μg/mL)	X (X = MPC@4 ≤ 5 μg/mL)	X (X = MPC@4 ≤ 5 μg/mL)	X (X = MPC@4 ≤ 5 μg/mL)	X (X = MPC@4 ≤ 5 μg/mL)	X (X = MPC@4 ≤ 5 μg/mL)
O=C([O-])c1c(C(F)F)ccc2c1O[B-](O)(O)CC2.[Na+].[Na+] [Compound 50, Disodium; 8-(difluoromethyl)-4,4-dihydroxy-5-oxa-4-boranuidabicyclo[4.4.0]deca-1(6),7,9-triene-7-carboxylate]	X (X = MPC@4 ≤ 5 μg/mL)	X (X = MPC@4 ≤ 5 μg/mL)	X (X = MPC@4 ≤ 5 μg/mL)	X (X = MPC@4 ≤ 5 μg/mL)	X (X = MPC@4 ≤ 5 μg/mL)	X (X = MPC@4 ≤ 5 μg/mL)
